Results as given in patent publication EP4683654A1 (dated 2026).

Target: T1, human CD47 (cluster of differentiation 47) (human, UniProt Q08722)
T1 construct: whole, on cells; CD47 as carried by Raji, SK-OV-3 (SKOV3) and HT-1080 cells and by human primary platelets and T cells; the cell is named under assay; also called IAP; integrin-associated protein
Assay: FACS on Raji cells, pH 7.3 and pH 6.0

binding result: binds
B1: variant SIRPαV1 IgV-IgG1 Fc fusion protein with the mutation of K53H (Fc fusion)
chain: EEELQVIQPDKSVLVAAGETATLRCTATSLIPVGPIQWFRGAGPGRELIYNQHEGHFPRVTTVSDLTKRNNMDFSIRIGNITPADAGTYYCVKFRKGSPDDVEFKSGAGTELSVRAKPS[human IgG1 Fc not printed]
